The text below walks through data of the supplement of paper PMC4466236.

Whole data set: some 33,000 sequences, median “E-score (dimensionless, -0.5 to 0.5)” near -0.058, cut for the highest 2% near 0.35. The list shows a part of the results.

For this test, the system named is MvaT. In words: PBM 8-mer E-score (mean of HK and ME arrays) (E-score (dimensionless, -0.5 to 0.5)); higher = stronger relative binding preference; most listed sequences are background and not binding sites. In a few lines:
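Reported values are rank-based E-scores, taken as the mean of two universal arrays and parsed with a custom script. Each 8-mer score falls between -0.5 and 0.5. The arrays, ME and HK, were double-stranded 60-mers with a constant 25-mer primer region and a variable 35-mer region covering all 8-mers. They were probed, by an earlier protocol, with full-length P. aeruginosa MvaT carrying an N-terminal glutathione S-transferase fusion.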
Take GAATTTCA: the “PBM 8-mer E-score” value is 0.108.

On to CTCATTGC, for which the “PBM 8-mer E-score” value was -0.0825.

Turning to CCAGGCAC, the “PBM 8-mer E-score” value was -0.347.

Regarding CCCTCTCG, the “PBM 8-mer E-score” value is -0.179.

As for AAACAATT, the “PBM 8-mer E-score” value came out at 0.346.

Take AAACGGTG: the “PBM 8-mer E-score” value is -0.0487.

For CTTAATGC, the “PBM 8-mer E-score” value stood at 0.177.

Regarding CGGTATAG, the “PBM 8-mer E-score” value is -0.0372.

As to CATCCTTC, the “PBM 8-mer E-score” value is -0.123.

As for TACGCCCA, the “PBM 8-mer E-score” value was -0.121.

For GGACGGCC, the “PBM 8-mer E-score” value was -0.262.

With AACAATAT, the “PBM 8-mer E-score” value stood at 0.362.

As for CACCGGAG, the “PBM 8-mer E-score” value was -0.244.

On to AGGGGAGC, for which the “PBM 8-mer E-score” value was -0.376.

ACAAACCC: the “PBM 8-mer E-score” value is 0.0533.

Turning to CTAATTAA, the “PBM 8-mer E-score” value worked out at 0.413.

As to ATTCGCGG, the “PBM 8-mer E-score” value was -0.0656.

As for ACATCTCC, the “PBM 8-mer E-score” value is -0.0467.

Consider ATGCTCAC, for which the “PBM 8-mer E-score” value is -0.139.

On to CCTTCGCC, for which the “PBM 8-mer E-score” value is -0.29.

Take CAATTTAG: the “PBM 8-mer E-score” value worked out at 0.2.

As to CGGGTCGC, the “PBM 8-mer E-score” value is -0.189.

With TAGGTAAA, the “PBM 8-mer E-score” value worked out at 0.223.

Turning to TGTAGAAA, the “PBM 8-mer E-score” value was found to be 0.143.

On to TCTCATAA, for which the “PBM 8-mer E-score” value was 0.0817.

Consider AAGTCTAA, for which the “PBM 8-mer E-score” value came to 0.22.

For the sequence TGCTACAA, the “PBM 8-mer E-score” value came out at 0.138.

For AACCACTT, the “PBM 8-mer E-score” value came out at 0.0932.

Take AGCTTCCC: the “PBM 8-mer E-score” value was -0.155.

Consider CCGGATTC, for which the “PBM 8-mer E-score” value was -0.146.

With CTCCTACA, the “PBM 8-mer E-score” value is -0.104.

With AACCTGGA, the “PBM 8-mer E-score” value was -0.275.

As for CCCCTCAG, the “PBM 8-mer E-score” value was -0.271.

Turning to CATACAAC, the “PBM 8-mer E-score” value is 0.23.

Consider CACTCGGA, for which the “PBM 8-mer E-score” value is -0.0486.

As for ACCCCGCT, the “PBM 8-mer E-score” value was -0.251.

Consider TACCTGCA, for which the “PBM 8-mer E-score” value was -0.00127.

In the case of ACTCCTGA, the “PBM 8-mer E-score” value was -0.0172.

Take AACCACGT: the “PBM 8-mer E-score” value is -0.0974.

In the case of GATAGATC, the “PBM 8-mer E-score” value was -0.0141.

For the sequence CCAGTTGA, the “PBM 8-mer E-score” value came to 0.021.

As for GAGAAAGC, the “PBM 8-mer E-score” value was -0.107.

As to CCGCTACC, the “PBM 8-mer E-score” value is -0.197.

In the case of AGACACTA, the “PBM 8-mer E-score” value amounted to 0.134.

In the case of ACCCAAAT, the “PBM 8-mer E-score” value stood at 0.0222.

Consider GATAGGGA, for which the “PBM 8-mer E-score” value is -0.162.

Consider AATCATAA, for which the “PBM 8-mer E-score” value was 0.306.

Turning to TAAGTGCA, the “PBM 8-mer E-score” value stood at 0.254.

For the sequence ATGTGGTC, the “PBM 8-mer E-score” value amounted to 0.0334.

Turning to GGATGCTA, the “PBM 8-mer E-score” value is -0.208.

Turning to ATGTCCCA, the “PBM 8-mer E-score” value is -0.00613.

Take ATTCCAAG: the “PBM 8-mer E-score” value came out at 0.101.

Consider AGTCGCCG, for which the “PBM 8-mer E-score” value is -0.245.

Take AAGTTGTC: the “PBM 8-mer E-score” value came out at 0.168.

As for CAGCTCGA, the “PBM 8-mer E-score” value is -0.191.

As for CTGTTCCC, the “PBM 8-mer E-score” value is -0.133.

CGGGGATC: the “PBM 8-mer E-score” value is -0.256.

With GAAATCAC, the “PBM 8-mer E-score” value is -0.0943.

AAAATTCT: the “PBM 8-mer E-score” value worked out at 0.0934.

With AGTACACG, the “PBM 8-mer E-score” value was -0.15.

Turning to GGTAACAA, the “PBM 8-mer E-score” value came to 0.107.

As for CATACTAC, the “PBM 8-mer E-score” value came to 0.2.

For AGAAACGG, the “PBM 8-mer E-score” value was -0.0989.

Consider GCTGATTA, for which the “PBM 8-mer E-score” value came out at 0.0388.

For GACGCGTA, the “PBM 8-mer E-score” value is -0.165.

For CTACGCAC, the “PBM 8-mer E-score” value was -0.15.

Consider ATTACACC, for which the “PBM 8-mer E-score” value is 0.17.

For the sequence CGTTACAC, the “PBM 8-mer E-score” value is -0.0759.

Consider GCGTTTCA, for which the “PBM 8-mer E-score” value stood at 0.0513.

As to CCCTTGGA, the “PBM 8-mer E-score” value was -0.316.

Regarding CCAGCGTA, the “PBM 8-mer E-score” value is -0.264.

For GGTGTCCA, the “PBM 8-mer E-score” value was -0.177.

On to ACTGAAAG, for which the “PBM 8-mer E-score” value was -0.0474.

For ACTATTTA, the “PBM 8-mer E-score” value stood at 0.345.

For the sequence CGATCGAA, the “PBM 8-mer E-score” value amounted to 0.0143.

Turning to ATGGCGCA, the “PBM 8-mer E-score” value was determined as 0.00875.

Regarding AATCCGCG, the “PBM 8-mer E-score” value was -0.0171.

Turning to GAGTAGTA, the “PBM 8-mer E-score” value came out at 0.107.

Consider CCAGTACC, for which the “PBM 8-mer E-score” value was -0.225.

With CCTACCCG, the “PBM 8-mer E-score” value was -0.16.

In the case of CACATAGC, the “PBM 8-mer E-score” value is -0.135.

As to AGCCGGGG, the “PBM 8-mer E-score” value was -0.1.

Turning to CAATGGCA, the “PBM 8-mer E-score” value is -0.151.

Take AGCTATGC: the “PBM 8-mer E-score” value was -0.226.

Turning to AATTCTGT, the “PBM 8-mer E-score” value was 0.141.

As for GCCGAACC, the “PBM 8-mer E-score” value is -0.115.

Take AACAATTA: the “PBM 8-mer E-score” value worked out at 0.391.

Take GGTGGGAC: the “PBM 8-mer E-score” value is -0.191.

Consider AACTATCC, for which the “PBM 8-mer E-score” value came out at 0.208.

As to CTACTTAC, the “PBM 8-mer E-score” value turned out to be 0.221.

As to CATCTGAC, the “PBM 8-mer E-score” value is -0.163.

AGGAGATC: the “PBM 8-mer E-score” value was -0.28.

In the case of AGCCTTAA, the “PBM 8-mer E-score” value was -0.0656.

In the case of AAGGGTAC, the “PBM 8-mer E-score” value is -0.0522.
